Hit rate of the full screen: of about 48,000 compounds, about 450 (0.94%) were called active. Another 19% or so got no clear call; they are omitted. Calls follow the shape of the dose curve; as a rule, active = well fitted inhibition curve with a large enough effect; inconclusive = small, poorly fitted or top-dose-only effect; inactive = no such curve, though single readings can be large or run the other way. The list shows a part of the results.
Assay: Primary qHTS for Identification of Small Molecule Inhibitors of Huntingtin Promoter Activity; also: nearly all actives have a fitted effect of over 50% in size
Settings: HEK293 HTT promoter firefly luciferase reporter (activity 0% = vehicle and -100% = no light), 24 h; series mostly up to 57.5 µM; activity change, negative = inhibition: at the top concentration
Outline: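 Luminescence was read after Dual-Glo reagent and a 10 min room-temperature incubation. Values were normalized to vehicle (0% activity) and zero RLU (-100% activity). Reporter HEK293 cells had been exposed to compounds (up to 57.5 uM final) for 24 h.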

Activity change, negative = inhibition, inactive:
CCOC(=O)c1ccc(NC2SC(=O)N(Cc3cccc(C(=O)O)c3)C2=O)cc1 (stereo not drawn) 51.8%, COc1cc2nc(SCC(=O)Nc3ccccc3F)n3nc(-c4ccccc4)nc3c2cc1OC -2.16%, CCOc1ccc(Cn2c(CNS(=O)(=O)c3cccc(Cl)c3)nc3cccnc32)cc1 -18%, CCc1ccc(NC(=O)CSc2nc3c(sc4ccccc43)c(=O)n2CCCOC(C)C)cc1 -11.4%, COc1ccccc1C(=O)N1CCN(Cc2cc(=O)oc3cc(C)ccc23)CC1 -15.8%, COc1ccc(-c2nc3ccc(NS(=O)(=O)c4ccc(Cl)cc4)cc3o2)cc1 -20.4%, Cc1ccc(CNC(=O)c2ccc(CSCc3ccccc3C)o2)cc1 -16.3%, CCCCN(CC)C(=O)Cn1ncc2c3ccccc3n(CCC)c2c1=O -12.7%, COc1ccc(-n2cc(C(=O)NCc3ccccc3Cl)c3ccccc3c2=O)cc1 -8.35%, Cn1c(=O)[nH]c2cc(-c3noc(-c4cccc(Cl)c4)n3)ccc21 3.12%, CCCNC(=O)Cn1nc(-c2ccc(F)cc2)c2cnc3ccc(F)cc3c21 -2.01%, CCOc1cccc(C(=O)N(Cc2ccc(CC)cc2)C2CCS(=O)(=O)C2)c1 (stereo not drawn) -15.7%, CCC(C)NC(=O)c1cccc(NC(=O)c2nsc3ccccc23)c1 (stereo not drawn) 45.8%, CC(=O)C1=C(c2ccc(Cl)cc2)N(C(C)=O)n2c(nnc2C2CCCCC2)S1 -38.8%, Cc1ccc(Cl)cc1N(C)C(=O)c1cn(C2CCCCC2)c(=O)c2c1c1ccccc1n2C -3.97%, Cc1ccc2c(c1)N(CCC(=O)NCc1ccccc1Cl)C(=O)CO2 -13.4%, O=c1c2oc3ccccc3c2n(Cc2ccccc2F)c(=O)n1Cc1ccccc1 -22.4%, Cc1ccc2onc(CC(=O)Nc3ccc(C(C)C)cc3)c2c1 -14.9%, COc1cccc(CNC(=O)c2cc3c(=O)oc4ccc(C)cc4c3s2)c1 0.606%, COc1ccc(-c2nnc(SCc3cccc(Cl)c3)o2)cc1 -8.73%, CC(=O)N1CCC(N(Cc2ccc(C)o2)C(=O)Nc2ccc(C)cc2)CC1 2.93%, Cn1c(=O)[nH]c(=O)c2c1nc(NCCc1ccccc1)n2Cc1ccc(F)cc1 -19.7%, Cc1cc(NC(=O)Nc2nnc(N(C)Cc3ccccc3)s2)ccc1Br -7.75%, Cc1ccc(O)c(NC(=O)c2cc(-c3ccccc3O)no2)c1 40.8%, CCOc1ccc2nc(NC(=O)c3nc(SC)ncc3Cl)sc2c1 0.118%, CCOc1ccccc1NC(=O)Cc1noc2ccc(C)cc12 1.56%, COc1ccc2nc(N(Cc3cccnc3)C(=O)C3CCCCC3)sc2c1 -24.2%, COc1cccc(C2C(C(=O)Nc3ccc(C)cc3C)=C(C)Nc3nc4ccccc4n32)c1OC (stereo not drawn) -6.14%, CC1(C)C(=O)N(CC(=O)Nc2ccc(Br)cc2F)c2ccccc21 -34%, CCOC(=O)c1cc(S(=O)(=O)N2CCN(c3ccccc3F)CC2)[nH]n1 -8.85%, CC(NC(=O)C1CCN(c2nc3ccccc3nc2C(F)(F)F)CC1)c1ccccc1 (stereo not drawn) -39.2%, CCCCNC(=O)c1cccc(-n2c(C)nc3cccnc32)c1 -15.5%, Fc1ccc2c(c1)-c1nc(-c3ccccc3)cc(-c3ccccc3)c1CO2 -6.13%, CCOc1cc(C(=O)N2CCn3c4c(c5cc(C)ccc53)CCCC42)cc(OCC)c1OCC (stereo not drawn) -0.442%, Cc1cccc(N(C)c2ccc3cc(S(=O)(=O)N4CCCC4)ccc3n2)c1 1.73%, Cc1ccc2c(c1)c(N1CCCC1=O)c(C(=O)Nc1ccc(F)cc1F)n2C -31.6%, CCC(=O)N1CCc2cc(S(=O)(=O)NC(Cc3ccccc3)C(=O)Nc3cccc(OC)c3)ccc21 (stereo not drawn) -11%, Cc1ccc(-c2nnc3c4ccccc4c(C)nn23)cc1NC(=O)c1ccccc1Cl -1.26%, Cc1ccc(S(=O)(=O)c2nnn3c2nc(N2CCCC2)c2sccc23)cc1 -3.86%, COc1cccc(N2CCN(c3ncnc4onc(-c5ccc(F)cc5)c34)CC2)c1 1.69%, Cc1ccc(C)c(NC(=O)CSC2=Nc3ccccc3N=C(c3ccc(F)cc3)C2)c1 -1.3%, CCOC(=O)c1cc(S(=O)(=O)N2CCN(c3ccc(C)cc3C)CC2)[nH]n1 -1.71%, O=C(CCCCCn1c(=O)[nH]c2ccccc2c1=O)NCc1ccccc1 5.11%, COC(=O)c1ccc(O)c2ncc(-c3ccc(C(=O)N4CCN(C)CC4)cc3)cc12 -16.9%, CN(C)c1ccc(NC(=O)Cn2cc(S(=O)(=O)Cc3cccc(Cl)c3)c3ccccc32)cc1 -28.6%, CC(=O)c1cc(-c2ccccc2)n(CCC(=O)Nc2ccc(C)cc2C)c1C -24.3%, COc1ccc(N2CC(NC(=O)c3cc4ccccc4o3)CC2=O)cc1 (stereo not drawn) 3.87%, Cc1cc(C(=O)NCc2ccc(Cl)cc2)c2c(C)nn(-c3ccccc3)c2n1 0.229%, COC(=O)c1c(NC(=O)Nc2ccc(Cl)cc2)sc(C)c1C -28.4%, COc1ccccc1CNC(=O)CCC1N=C2c3ccccc3N=C(SCc3ccc(C)cc3)N2C1=O (stereo not drawn) 17.6%, Cc1ccc2c(c1)N(C(=O)Nc1cccc(C)c1C)CCO2 -22.8%, CS(=O)(=O)N1CCc2cc(C(=O)N3CCN(c4ccccc4)CC3)ccc21 -20.2%, CCCc1nnc(NC(=O)c2cc(=O)c3cc(Cl)ccc3o2)s1 4.53%, COc1ccccc1NC(=O)NCc1cccn1Cc1ccccc1 3.2%, Cc1cc(Br)ccc1NC(=O)c1ccc(NS(=O)(=O)c2c(C)noc2C)cc1 -5.22%, COc1ccc(NC(=O)Cn2cnc3ccc(S(=O)(=O)N4CCC(C)CC4)cc3c2=O)cc1OC -21.5%, COc1ccc(-c2cnn3c(C)cc(C)nc23)cc1OC 6.64%, CCOc1ccc(-c2nc(SCC(=O)NC3CCCC3)c(-c3ccccc3)[nH]2)cc1OC -10.4%, O=C(CSc1nc(-c2cccs2)nc2cc(=O)[nH]n12)Nc1ccccc1F -3.01%, CCCOc1ccc(C(=O)Nc2ccc(Cl)c(-c3nc4ncccc4o3)c2)cc1 5.54%, CCOc1ccc(CCNC(=O)CSc2cc(=O)n(C)c3cc(Cl)ccc23)cc1OCC -16.2%, CSc1ccc(CCNC(=O)CN2C(=O)c3cccnc3Oc3ccc(Cl)cc32)cc1 -13.1%, Nc1c(-c2nc(-c3ccc4c(c3)OCO4)cs2)c2ccccn2c1C(=O)c1ccccc1 -21.3%, CCC(C(=O)Nc1ccccc1OC)n1nc(C)c2sc3ccccc3c2c1=O (stereo not drawn) -27.6%, Cc1ccc(C)c(OCC(=O)Nc2ccc(S(=O)(=O)Nc3onc(C)c3C)cc2)c1C -6.14%, Cc1ccc(NC(=O)c2c(C)oc3nc(C)nc(N4CCCC4)c23)c(C)c1 -3.98%, COc1ccc(NC(=O)c2c(NCc3sccc3C)sc3c2CCCCC3)c(OC)c1 -24.1%, CCOc1ccc(CCNC(=O)c2ccc(CS(=O)Cc3cccc(Cl)c3)o2)cc1 (stereo not drawn) -21.9%, COC(=O)c1ccc(NC(=O)CSc2ncc3c(n2)-c2cc(Cl)ccc2N(Cc2ccccc2)S3(=O)=O)cc1 -21.6%, O=S(=O)(c1ccc(F)cc1)N(Cc1nc(-c2ccc(Cl)cc2)no1)C1CCCCC1 -29.9%, Cc1c(NC(=O)c2cccc3c(Cl)cccc23)cccc1-c1nc2ccccc2o1 -30.3%, O=C(CCS(=O)(=O)c1cc(Br)cc2c1N(C(=O)C1CC1)CC2)NCc1ccccc1Cl -4.42%, COC(=O)c1sccc1S(=O)(=O)N(CC(=O)Nc1c(C)cccc1C)c1ccc(C)c(C)c1 -17.5%, CCC(C(=O)Nc1cc(F)ccc1F)n1nc(-c2cc(C)ccc2C)ccc1=O (stereo not drawn) -26%, CCOC(=O)N1CCc2c(sc3c2c(=O)n(Cc2ccccc2)c(=O)n3CC(=O)Nc2ccc(C)c(C)c2)C1 -5.21%, Cc1ccc(NC(=O)CCC(=O)N2CCSc3ccccc32)cc1Cl -32.8%, COC(=O)C(C)n1nnc2sc(-c3ccccc3)cc2c1=O (stereo not drawn) 23.5%, Cc1c(Cl)cccc1NC(=O)Nc1nnc(N(C)Cc2ccccc2)s1 -5.55%, Cc1c(N(C)C)c(=O)n(-c2ccccc2)n1C 20%, CC1=C(C(=O)NCc2ccccc2C)C2(CCCCC2)OC1=O -0.439%, CC(=O)c1ccc(NC(=O)Cn2cc(S(=O)(=O)Cc3ccccc3Cl)c3ccccc32)cc1 -24.5%, Cn1c(=O)c2c(nc(Oc3ccccc3)n2Cc2c(Cl)cccc2Cl)n(C)c1=O -4.29%, COc1ccc(N(CC(=O)Nc2cc(C)ccc2C)S(=O)(=O)c2ccc(OC)c(OC)c2)cc1 -49.8%, COCCCNC(=O)CSc1nc2cc3c(cc2c(=O)n1CCCC(=O)NCc1ccc(OC)cc1)OCO3 -13.1%, O=C(Nc1ccc(F)cc1F)c1ccc2c(O)c(S(=O)(=O)c3ccc(Cl)cc3)c(=O)[nH]c2c1 -3.7%, CCOc1ccc(NC(=O)CN2C(=O)COc3ccc(S(=O)(=O)NC4CCCC4)cc32)cc1 -19.2%, CCc1ccc(C2c3c(oc4ccc(F)cc4c3=O)C(=O)N2c2nc(C)c(C(=O)OC)s2)cc1 (stereo not drawn) -9.1%, O=C(Nc1c(C(=O)O)oc2ccccc12)c1ccc(C(F)(F)F)cc1 -22.1%, O=C(CSc1cn(CC(=O)N2CCOCC2)c2ccccc12)Nc1ccccc1 -20.4%, O=C(COCc1cc(-c2ccc3c(c2)OCO3)on1)NCc1ccccc1Cl -3.37%, NC(=O)c1ccc2[nH]ccc2c1 -3.44%, COc1ccccc1OCC(=O)NCc1nc(-c2ccc(Cl)cc2)no1 -16.9%, CCOc1ccc(C(=O)Nc2ccc(S(=O)(=O)Nc3nc(C)cc(C)n3)cc2)cc1OC -2.48%, Cc1ccccc1Cc1c(C)nc2nc(SCC(=O)NCCc3ccc(Cl)cc3)nn2c1C -13.7%, CC1=C(c2ccc(C)c(C)c2)S(=O)(=O)N(Cc2ccc(C(=O)NC(C)c3ccccc3)cc2)C1=O (stereo not drawn) -31%, O=C(COc1ccccc1)Nc1ccccc1OCc1cc(=O)n2ccccc2n1 3.03%, COc1ccc(CNC(=O)c2ccc(CS(=O)(=O)c3ccccc3OC)o2)cc1 -12.6%, Cc1ccc(C)c(-c2[nH]c3c(c2-c2c(-n4cccc4)n(C)c(=O)[nH]c2=O)c(=O)[nH]c(=O)n3C)c1 -10%
